Measurements taken from article PMC12040169 (PLOS Biology, 2025).
This is one part of the list.

system: T1, C. trachomatis L2/434/Bu expressing GFP (CTL2-GFP); design: species or system HeLa; C. trachomatis total inclusion area by high-content imaging, normalised to DMSO; conditions: total inclusion area; 28.5 h, 10 µM; inhibitor
T1 construct: L2/434/Bu GFP intracellular growth in HeLa cells
Procedure, shortened: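 High-content images of fixed, Hoechst-stained infected cultures supply inclusion area and count (growth) plus nuclei number (viability), complementing bulk GFP/resorufin fluorescence. MIC determination is unchanged from the primary assay.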

SMILES	% of control remaining
O=C(O)COc1ccc(N2C(=O)C(O)=C(C(=O)c3ccccc3)C2c2cccc(F)c2)cc1 (stereo not drawn) [CBK287010]	112.741
O=C(CSc1ccc(F)cc1)Nc1cc(Cl)ccc1O [CBK268685]	93.7897
CC1CCCN(Cc2c(C3CCCNC3)[nH]c3ncccc23)C1 (stereo not drawn) [CBK285112]	58.9797
O=C(c1cncnc1)N1CCC(F)CC1 [CBK200384]	97.0253
CSCC[C@@H]1NC(=O)N(c2ccc(CN3CCOCC3)cc2)C1=O [CBK287954]	137.732
CCN1CCN(c2ccc(NC(=O)c3cc(-n4cnnc4)ccc3Cl)cc2Cl)CC1 [CBK269343]	107.715
O=C(N/N=C/c1ccccc1Cl)c1ccc(C(=O)N/N=C/c2ccccc2Cl)cc1 [CBK261698]	98.1662
Cc1cccc(C(=O)NNC(=O)c2cccc(Cl)c2)c1 [CBK261676]	98.9905
CCC(CNC(=O)c1cccc(C)n1)N1CCCC1 (stereo not drawn) [CBK304803]	68.5433
O=C1CCC(=O)N1CCOc1nccnc1OC1CCN(CC2CCCCC2)CC1 [CBK084357]	89.1688
CCCc1cc(=O)oc2cc(OCc3ccc(C(=O)O)o3)ccc12 [CBK264786]	94.3751
COc1ccc(CCNC(=O)C(N)=O)cc1OC [CBK288457]	64.4723
N=c1n(CCN2CCOCC2)c2ccccc2n1CC(O)c1cccs1 (stereo not drawn) [CBK262895C]	83.9156
CCn1ncnc1CN1CCN(C2Cc3ccccc3C2)CC1 [CBK304401]	54.59
COc1cc(CNc2nccnc2-c2ccc(C(=O)N3CCOCC3)cc2)cc(OC)c1 [CBK036866]	97.4457
C[C@H](c1ccccc1)n1c(=O)[nH]c2ncc(-c3cccc4cccnc34)nc21 [CBK064237]	88.4673
CCNC(=O)C1(Cc2ccccc2-c2ccncc2)CCOCC1 [CBK285216]	107.87
COc1ccc(OC)c(C(O)c2nc3ccccc3n2C(C)C)c1 (stereo not drawn) [CBK263474]	48.2292
Nc1cccc(-c2nc(-c3cccs3)cnc2N)c1 [CBK063923]	84.1245
CN(C)CCCNC(=O)c1ccc(/C=N/O)nc1 [CBK288489]	109.005
O=C(NCc1ccc(Cl)cc1)c1cnc2ccc(CN3CCSCC3)cc2c1O [CBK018010]	87.2704

SMILES	% of control remaining
CN(C)CCN(C)C(=O)c1ccc(-c2cccc(N(C)C)c2)nc1N(C)C [CBK106077]	75.2031
O=C(CSc1nnc2sc3ccccc3n12)N1N=CCC1c1ccccc1 (stereo not drawn) [CBK266527]	117.406
O=C(NCCNc1ccc([N+](=O)[O-])cc1Cl)c1ccc(F)cc1 [CBK262344]	102.663
c1cncc(-c2nnc([C@H]3CCNC3)o2)c1 [CBK289396]	81.2371
N=C(Nc1nc(CSc2nnc(N)s2)cc(=O)[nH]1)Nc1ccc(Cl)cc1Cl [CBK268890]	83.2541
O=C(C1=C(O)C(=O)N(CCN2CCOCC2)C1c1cccnc1)c1ccco1 (stereo not drawn) [CBK264570]	110.385
CCC#CC(=O)Nc1ccc(N2CCNCC2)nc1 [CBK004746T]	87.8451
Cc1ccc(S(=O)(=O)N(Cc2c(F)cccc2F)C2CCNCC2)cc1 [CBK163927T]	55.9298
Cc1ccccc1NC(=O)Cn1c(=O)cnc2ccccc21 [CBK287852]	84.3402
CC(=O)N1CC2(CCN(Cc3nccn3C(C)C)CC2)CC1C(=O)O (stereo not drawn) [CBK306587]	66.3729
Cc1ccc(C(=O)C2=C(O)C(=O)N(CCCn3ccnc3)C2c2ccncc2)cc1 (stereo not drawn) [CBK264476]	110.897
Cc1cc(=O)n(CC(=O)NC(C)Cc2ccccn2)c2ccccc12 (stereo not drawn) [CBK281420]	106.569
c1ccc2cc(-c3cn4ccnc4c(NC4CCOCC4)n3)ccc2c1 [CBK066290]	119.102
COc1cc(C(=O)N2CCN(Cc3c[nH]c4ccccc34)CC2)cc(OC)c1OC [CBK301212G]	94.0304
CN1CCN(CCCN2C(=O)CSC2c2cccc([N+](=O)[O-])c2)CC1 (stereo not drawn) [CBK278237C]	73.9326
CCC(C)NC1=NC(=O)C(CC(=O)Nc2ccccc2Cl)S1 (stereo not drawn) [CBK059133T]	93.8841
CCCc1ccc(S(=O)(=O)Nc2c(C(=O)N(CC)CC)[nH]c3ccccc23)cc1 [CBK050111]	99.8185
O=C(CSc1ccc2ccccc2n1)Nc1ccnc2ccccc12 [CBK176848]	59.8941
O=C(O)CNS(=O)(=O)c1cc(Cl)c(Cl)cc1Cl [CBK266136]	125.881
Cc1cc(CN2CCC(O)(c3cccnc3F)CC2)oc1C [CBK282124]	101.048
Nc1nnc(SCC(=O)N2CCN(C(c3ccccc3)c3ccccc3)CC2)n1-c1ccccc1 [CBK266696]	75.9551

SMILES	% of control remaining
O=C(O)c1cccc(NS(=O)(=O)c2ccc(S(=O)(=O)N3CCCCC3)cc2)c1 [CBK295295]	107.237
S=C(NCC1CCN(C(=S)Nc2cccc3ccccc23)CC1)Nc1cccc2ccccc12 [CBK016070]	87.8366
N#CCCN(C(=O)NCc1cccc2ccccc12)C1CCCCC1 [CBK156353]	78.6143
COc1cccc(OCCO)c1 [CBK000514]	107.245
COc1cc(NC(=O)CC2(C(=O)O)CCCCC2)ccc1N1CCCC1=O [CBK296761]	117.143
CCn1c(CNC(=O)c2cn3cc(C)ccc3n2)nc2ccccc21 [CBK281395]	84.1612
O=C(NCCNCCNC(=O)C1(c2ccccc2)CCCC1)C1(c2ccccc2)CCCC1 [CBK017670]	2.204
Cc1cccc(NC(=O)C(CC(=O)O)NCc2ccccc2)c1 (stereo not drawn) [CBK266821]	95.6153
CC(C)Nc1nc2cc(Cl)c(Cl)cc2nc1Sc1nc[nH]n1 [CBK115261]	88.6569
COc1cncc(-c2cncc(NCCCN3CCOCC3)n2)c1 [CBK037902]	93.3838
COc1ccc(CCN2CCN(c3nccnc3OCC3COc4ccccc4O3)CC2)cc1OC (stereo not drawn) [CBK082808T]	72.7318
CS(=O)(=O)c1ccc(Cn2ccnc(N3CCN(C(=O)C4CCCCC4)CC3)c2=O)cc1 [CBK153771]	81.9993
CC(C)NC(=O)[C@@H](C)C1CC[C@@]2(C)CC[C@H](NC(=O)c3ccncc3)[C@@H](C)[C@@H]2[C@H]1O (stereo partly drawn) [CBK289449]	122.397
Cc1ccc(C2(O)CCN(Cc3cnn(C)c3C)CC2)cc1 [CBK282736]	121.672
Cc1nc(-c2cccnc2)[nH]c(=O)c1CC(=O)N(C)C1CCCCC1 [CBK306310]	19.0671
CCCCN(C)S(=O)(=O)c1ccc(C(C)(C)CC)cc1 [CBK044836]	93.2686
Cc1ccc(-c2nnc(SCc3cccc4nsnc34)n2C)cc1 [CBK269706]	92.5628
O=c1[nH]c(Nc2ccccc2)nc2nccc(-c3ccccc3)c12 [CBK288072]	99.3669
CN1CCN(c2ccccc2NC(=O)c2ccc3ccccc3c2)CC1 [CBK268486]	88.0779
COc1ccc(-c2nccnc2NCC2CC2)cc1 [CBK038048]	143.145
COc1ccc(C(C)C)cc1-c1nc2ncccc2cc1N [CBK067614]	66.1055

SMILES	% of control remaining
Cc1cccc(NCC2CCN(Cc3cc(=O)n4ccccc4n3)C2)n1 (stereo not drawn) [CBK305756]	4.6
CN(C)CCNC(=O)c1sc2ccccc2c1CC1CCCCCN1C(=O)C1CCC1 (stereo not drawn) [CBK286096]	80.9182
COc1ccccc1-c1noc(C2CCN(S(=O)(=O)c3ccc(F)cc3)CC2)n1 [CBK269401]	90.7289
Cc1cccc(OCC(C)NC(=O)NCCc2cnn(C)c2)c1 (stereo not drawn) [CBK304887]	14.8301
NC(=O)C1(N2CCCCC2)CCN(CC(=O)Nc2ccccc2Sc2ccccc2)CC1 [CBK268488]	92.3008
Cc1nnnn1-c1cc(NC(=O)N(C)C(C)C)ccc1F [CBK304708]	89.2336
O=[N+]([O-])c1ccccc1S(=O)(=O)Nc1ccc(S(=O)(=O)Nc2ncccn2)cc1 [CBK264768]	64.1214
O=C(NC(=S)Nc1cccc2c(O)cccc12)c1ccc(-c2ccccc2)cc1 [CBK269022]	78.7809
O=C(CSc1nnc2ccc(-c3ccccc3)nn12)N1CCCCC1 [CBK287678]	96.3434
Cc1cnc2c(c1)cc(C(F)(F)F)n2CC(=O)NC1CC1 [CBK282887]	91.4632
O=C(O)[C@@H]1CCCN1C(=O)C1CCC(Cn2nnc3ccccc3c2=O)CC1 (stereo partly drawn) [CBK286658]	98.0755
FC(F)(F)c1ccc(SCc2ccccc2)nc1 [CBK103715]	93.8955
Cc1nc2sccn2c1CN1CCCC(C(=O)N2CCOCC2)C1 (stereo not drawn) [CBK305390]	69.5616
CCn1c(SCC(=O)Nc2cc(Cl)ccc2O)nnc1-c1ccccc1 [CBK269680]	91.845
CC(C)COC(=O)N1CCN(C2CCc3cc(-c4ccc([S+](C)[O-])cc4)ccc3C2)CC1 (stereo not drawn) [CBK173425]	110.742
O=C(C1CCCCC1)N1CCC(n2nc(C3CC3)ccc2=O)CC1 [CBK284240]	98.9269
CC(=O)Nc1cccc(CN2CCCC2CC(O)c2ccccc2)c1 (stereo not drawn) [CBK305136]	81.3321
O=C(O)/C=C/C(=O)N(Cc1ccccn1)Cc1ccco1 [CBK286660]	93.8127
